Source: the supplement of paper PMC4967469
Lines with a small IC50 respond at low doses; a limit (>, <) means that the fit lies beyond the doses tested. AUC sums up the same curve from the lowest dose to the 256-fold higher top dose; the more sensitive the line, the further below 1. For some assays here: An inferred top dose comes from the curve model; the source does not state it.

What was measured:
Experiment in all cases: Viability of human cancer cell lines after 72 h of drug (GDSC screen)
17-AAG = compound: C=CCNC1=C2C[C@@H](C)C[C@H](OC)[C@H](O)[C@@H](C)/C=C(\C)[C@H](OC(N)=O)[C@@H](OC)/C=C\C=C(/C)C(=O)NC(=CC1=O)C2=O [17-AAG]; details: top dose 1 µM
Protocol: (§1)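 Human cancer cell lines in 384-well plates, medium with 10% serum, drug for 72 h over a 256-fold dose range (nine 2-fold or five 4-fold steps up to the top dose). Adherent lines were fixed and stained with the nucleic acid dye Syto60, suspension lines read with resazurin; signal relative to control wells, capped at 0 and 100%. One two-parameter sigmoid per drug and line, fitted in a mixed model over all curves with the slope shared within a line.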

CCT018159 = compound: CCc1cc(-c2n[nH]c(C)c2-c2ccc3c(c2)OCCO3)c(O)cc1O [CCT018159]; details: top dose 10 µM; top dose inferred
Protocol: as §1

BIX02189 = compound: CN(C)Cc1cccc(N=C(c2ccccc2)c2c(O)[nH]c3cc(C(=O)N(C)C)ccc23)c1 [BIX02189]; details: top dose 20 µM; top dose inferred
Protocol: as §1

Dimethyloxalylglycine = compound: COC(=O)CNC(=O)C(=O)OC [Dimethyloxalylglycine]; details: top dose 4000 µM; top dose inferred
Protocol: as §1

Doxorubicin = compound: COc1cccc2c1C(=O)c1c(O)c3c(c(O)c1C2=O)C[C@@](O)(C(=O)CO)C[C@@H]3O[C@H]1C[C@H](N)[C@H](O)[C@H](C)O1 [Doxorubicin]; details: top dose 1.024 µM
Protocol: as §1

OSI-027 = compound: COc1cccc2cc(-c3nc([C@H]4CC[C@H](C(=O)O)CC4)n4ncnc(N)c34)[nH]c12 [OSI-027]; details: top dose 20 µM
Protocol: as §1

Vismodegib = compound: CS(=O)(=O)c1ccc(C(=O)Nc2ccc(Cl)c(-c3ccccn3)c2)c(Cl)c1 [Vismodegib]; details: top dose 10 µM; top dose inferred
Protocol: as §1

VX-11e = compound: Cc1cnc(Nc2ccc(F)cc2Cl)nc1-c1c[nH]c(C(=O)N[C@H](CO)c2cccc(Cl)c2)c1 [VX-11e]; details: top dose 5.12 µM; top dose inferred
Protocol: as §1

TG101348 = compound: Cc1cnc(Nc2ccc(OCCN3CCCC3)cc2)nc1Nc1cccc(S(=O)(=O)NC(C)(C)C)c1 [TG101348]; details: top dose 10.24 µM
Protocol: as §1

UNC1215 = compound: O=C(c1ccc(C(=O)N2CCC(N3CCCC3)CC2)c(Nc2ccccc2)c1)N1CCC(N2CCCC2)CC1 [UNC1215]; details: top dose 1 µM; top dose inferred
Protocol: as §1

| Cell Line | AUC (17-AAG) | IC50 (17-AAG) | AUC (CCT018159) | IC50 (CCT018159) | AUC (BIX02189) | IC50 (BIX02189) | AUC (Dimethyloxalylglycine) | IC50 (Dimethyloxalylglycine) | AUC (Doxorubicin) | IC50 (Doxorubicin) | AUC (OSI-027) | IC50 (OSI-027) | AUC (Vismodegib) | IC50 (Vismodegib) | AUC (VX-11e) | IC50 (VX-11e) | AUC (TG101348) | IC50 (TG101348) | AUC (UNC1215) | IC50 (UNC1215) |
| --- | --- | --- | --- | --- | --- | --- | --- | --- | --- | --- | --- | --- | --- | --- | --- | --- | --- | --- | --- | --- |
| ROS-50 (B-cell leukaemia, suspension) | 0.984 | > 1 µM | 0.976 | > 10 µM | 0.807 | 13.9 µM | 0.586 | 461 µM | 0.882 | > 1.02 µM | 0.377 | 0.519 µM | 0.973 | > 10 µM | 0.981 | > 5.12 µM | 0.728 | 3.46 µM | 0.975 | > 1 µM |
| CTB-1 (B-cell lymphoma, suspension) | 0.91 | > 1 µM | 0.866 | > 10 µM | 0.882 | > 20 µM | 0.344 | 78.3 µM | 0.498 | 0.0629 µM | 0.133 | < 0.0781 µM | 0.952 | > 10 µM | 0.949 | > 5.12 µM | 0.635 | 1.74 µM | 0.964 | > 1 µM |
| JHH-4 (liver, adherent) | 0.983 | > 1 µM | 0.953 | > 10 µM | 0.893 | > 20 µM | 0.339 | 89.6 µM | 0.742 | 0.314 µM | 0.977 | > 20 µM | 0.964 | > 10 µM | 0.939 | > 5.12 µM | 0.976 | > 10.2 µM | 0.977 | > 1 µM |
| LS-411N (large intestine, adherent) | 0.77 | 0.462 µM | 0.939 | > 10 µM | 0.96 | > 20 µM | 0.866 | > 4000 µM | 0.554 | 0.093 µM | 0.567 | 1.98 µM | 0.969 | > 10 µM | 0.582 | 0.562 µM | 0.821 | 7.71 µM | 0.978 | > 1 µM |
| A3-KAW (B-cell lymphoma, suspension) | 0.963 | > 1 µM | 0.94 | > 10 µM | 0.77 | 6.14 µM | 0.097 | 18.5 µM | 0.423 | 0.0412 µM | 0.095 | 0.0909 µM | 0.988 | > 10 µM | 0.728 | 1.2 µM | 0.362 | 0.29 µM | 0.989 | > 1 µM |
| OSC-20 (head and neck, adherent) | 0.585 | 0.112 µM | 0.896 | > 10 µM | 0.948 | > 20 µM | 0.177 | 21 µM | 0.42 | 0.0371 µM | 0.673 | 4.2 µM | 0.98 | > 10 µM | 0.959 | > 5.12 µM | 0.953 | > 10.2 µM | 0.971 | > 1 µM |
| COLO-684 (endometrium, suspension) | 0.864 | > 1 µM | 0.846 | 8.69 µM | 0.959 | > 20 µM | 0.616 | 544 µM | 0.697 | 0.246 µM | 0.226 | 0.177 µM | 0.957 | > 10 µM | 0.92 | > 5.12 µM | 0.927 | > 10.2 µM | 0.976 | > 1 µM |
| SNU-C1 (large intestine, suspension) | 0.779 | 0.622 µM | 0.98 | > 10 µM | 0.977 | > 20 µM | 0.791 | 2830 µM | 0.956 | > 1.02 µM | 0.875 | > 20 µM | 0.98 | > 10 µM | 0.959 | > 5.12 µM | 0.906 | > 10.2 µM | 0.971 | > 1 µM |
| LU-65 (large cell lung carcinoma, suspension) | 0.987 | > 1 µM | 0.984 | > 10 µM | 0.933 | > 20 µM | 0.793 | 2200 µM | 0.76 | 0.421 µM | 0.716 | 5.78 µM | 0.987 | > 10 µM | 0.797 | 2.93 µM | 0.846 | 9.63 µM | 0.983 | > 1 µM |
| HCC-44 (lung adenocarcinoma, adherent) | 0.27 | 0.0141 µM | 0.909 | > 10 µM | 0.938 | > 20 µM | 0.557 | 357 µM | 0.434 | 0.0425 µM | 0.576 | 2.01 µM | 0.938 | > 10 µM | 0.874 | 4.79 µM | 0.841 | 6.91 µM | 0.985 | > 1 µM |
| SU-DHL-16 (B-cell lymphoma, suspension) | 0.824 | 0.393 µM | 0.983 | > 10 µM | 0.788 | 6.34 µM | 0.405 | 147 µM | 0.549 | 0.0841 µM | 0.009 | < 0.0781 µM | 0.989 | > 10 µM | 0.865 | 2.62 µM | 0.521 | 0.719 µM | 0.996 | > 1 µM |
| SK-ES-1 (Ewing sarcoma, semi-adherent) | 0.899 | > 1 µM | 0.912 | > 10 µM | 0.915 | > 20 µM | 0.713 | 1050 µM | 0.451 | 0.0466 µM | 0.471 | 1.04 µM | 0.977 | > 10 µM | 0.965 | > 5.12 µM | 0.655 | 1.78 µM | 0.981 | > 1 µM |
| NCI-H727 (lung carcinoid, adherent) | 0.752 | 0.555 µM | 0.953 | > 10 µM | 0.963 | > 20 µM | 0.775 | 2830 µM | 0.415 | 0.0321 µM | 0.663 | 4.8 µM | 0.964 | > 10 µM | 0.744 | 2.61 µM | 0.865 | > 10.2 µM | 0.965 | > 1 µM |
